No constants are given. Whether binding was seen depends on the method and setting. For part of these data: In cells and extracts the contact can be indirect. Some binding calls cover weakened binding; strength is not graded here. Tags and fused reporters may be left off the sequences shown.
B1: CALB1 (calbindin D28K), expressed in HEK-293T (protein, UniProt P05937 1-261)
chain: MAESHLQSSLITASQFFEIWLHFDADGSGYLEGKELQNLIQELQQARKKAGLELSPEMKTFVDQYGQRDDGKIGIVELAHVLPTEENFLLLFRCQQLKSCEEFMKTWRKYDTDHSGFIETEELKNFLKDLLEKANKTVDDTKLAEYTDLMLKLFDSNNDGKLELTEMARLLPVQENFLLKFQGIKMCGKEFNKAFELYDQDGNGYIDENELDALLKDLCEKNKQDLDINNITTYKKNIMALSDGGKLYRTDLALILCAGDN
B2: SENP2-FLAG (protein, UniProt Q9HC62 1-589)
chain: MYRWLVRILGTIFRFCDRSVPPARALLKRRRSDSTLFSTVDTDEIPAKRPRLDCFIHQVKNSLYNAASLFGFPFQLTTKPMVTSACNGTRNVAPSGEVFSNSSSCELTGSGSWNNMLKLGNKSPNGISDYPKIRVTVTRDQPRRVLPSFGFTLNSEGCNRRPGGRRHSKGNPESSLMWKPQEQAVTEMISEESGKGLRRPHCTVEEGVQKEEREKYRKLLERLKESGHGNSVCPVTSNYHSSQRSQMDTLKTKGWGEEQNHGVKTTQFVPKQYRLVETRGPLCSLRSEKRCSKGKITDTETMVGIRFENESRRGYQLEPDLSEEVSARLRLGSGSNGLLRRKVSIIETKEKNCSGKERDRRTDDLLELTEDMEKEISNALGHGPQDEILSSAFKLRITRGDIQTLKNYHWLNDEVINFYMNLLVERNKKQGYPALHVFSTFFYPKLKSGGYQAVKRWTKGVNLFEQEIILVPIHRKVHWSLVVIDLRKKCLKYLDSMGQKGHRICEILLQYLQDESKTKRNSDLNLLEWTHHSMKPHEIPQQLNGSDCGMFTCKYADYISRDKPITFTQHQMPLFRKKMVWEILHQQLL
B3: CALB1, mammalian two-hybrid fusion (protein, UniProt P05937 1-261)
chain: B1 chain
B4: SENP2, mammalian two-hybrid fusion (protein, UniProt Q9HC62 1-589)
chain: B2 chain

Tests used:
GST-NEMO (human) = GST-NEMO (human) (UniProt Q9Y6K9); test: pull-down; GST or GST-NEMO immobilised; lysates of transiently transfected HEK-293T cells applied; washing, SDS-PAGE, immunoblot; only the target purified
[1] = molecular target: Xpress-tagged NEMO (human) (UniProt Q9Y6K9); test: co-IP; Xpress-tagged NEMO and partner co-expressed in HEK-293T; anti-Xpress, protein A/G agarose; binding and washing with 0.5% NP-40 (20 mM Tris-HCl pH 7.5, 137 mM NaCl, 0.5 mM DTT, 10% glycerol, 2 mM EDTA), 4°C
[2] = molecular target: NEMO, mammalian two-hybrid fusion (human) (UniProt Q9Y6K9); test: two-hybrid; mammalian two-hybrid, CheckMate/Flexi system (Promega) in HEK-293T; pFN10A (activation domain) and pFN11A (binding domain); firefly/Renilla luciferase; partner/NEMO compared with partner/empty vector

| Binder | binding (GST-NEMO (human)) | binding [1] | binding [2] |
| --- | --- | --- | --- |
| B1 | binds | binds |  |
| B2 | binds | binds |  |
| B3 |  |  | binds |
| B4 |  |  | binds |
